The other results are listed elsewhere or left out. Further columns of the screen follow, without active or inactive calls.

Assay in all cases: Primary Screen for Target Class Profiling of Small Molecule Inhibitors of Methyltransferases
In assay [1] the target is Glycine N-methyltransferase (Homo sapiens) (UniProt Q14749). Particulars: purified enzyme, MTase-Glo SAH luminescence; measured here: GNMT inhibition; at 40 µM; stronger effect = lower value. In outline: (§1)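 Each enzyme was reacted with SAM and its substrate, with compounds tested once at 40 uM; SAH formed was read by MTase-Glo luminescence.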
Assay [2] concerns the target Guanidinoacetate N-methyltransferase (Homo sapiens) (UniProt Q14353). The conditions noted are these: purified enzyme, MTase-Glo SAH luminescence; measured here: GAMT inhibition; at 40 µM; stronger effect = lower value. In outline:
as §1

Assay [3] has as its target Histamine N-methyltransferase (Homo sapiens) (UniProt P50135). Particulars: purified enzyme, MTase-Glo SAH luminescence; measured here: HNMT inhibition; at 40 µM; stronger effect = lower value. In outline:
as §1

The target in assay [4] is Nicotinamide N-methyltransferase (Homo sapiens) (UniProt P40261). Particulars: purified enzyme, MTase-Glo SAH luminescence; measured here: NNMT inhibition; at 40 µM; stronger effect = lower value. In outline:
as §1

The target of assay [5] is Phenylethanolamine N-methyltransferase (Homo sapiens) (UniProt P11086). Particulars: purified enzyme, MTase-Glo SAH luminescence; measured here: PNMT inhibition; at 40 µM; stronger effect = lower value. The procedure, abridged:
as §1
% is set by controls: 0 for no effect and ±100 for the full control effect.

As for `O=C(COc1ccccc1)N1CCc2nn(Cc3ccccc3)c(=O)n2CC1`, the activity change, negative = inhibition in assay [1] is -2.22%; in assay [2], -2.39%; in assay [3], -0.364%; in assay [4], -4.21%; in assay [5], 0.944%.

Regarding `CC1(C(=O)NC2CCCCC2)Cn2c(cc3sccc32)C(=O)N1C1CCCCC1` (centres undefined), the activity change, negative = inhibition in assay [1] was -0.093%; in assay [2], 0%; in assay [3] it was 1.99%; in assay [4], -5.93%; in assay [5], 0.286%.

Take `CN1C(=O)c2cc(C(=O)NCCN3CCCC3)nn2CC1(C)C(=O)NC1CCCCCC1` (centres undefined): the activity change, negative = inhibition in assay [1] came to 3.95%; in assay [2], 0.037%; in assay [3], 2.41%; in assay [4], 2.11%; in assay [5], 0.2%.

In the case of `CC[C@H](C)/C=C(C)/C=C/C(=O)Cc1cc(O)c(C)c(O)c1C=O`, the activity change, negative = inhibition in assay [1] was -1.91%; in assay [2], 2.17%; in assay [3], 4.38%; in assay [4], -10.3%; in assay [5] it was 1.19%.

On to `CCC1c2ccc(C)n2CCN1C(=O)Nc1ccccc1Cl` (centres undefined), for which the activity change, negative = inhibition in assay [1] is -9.69%; in assay [2] it was 1.83%; in assay [3], -6.09%; in assay [4] it was -6.84%; in assay [5] it was -7.47%.

Consider `O=C(NC[C@H]1OC[C@@H](NC2CCCCC2)[C@@H]1O)N1CCOCC1`, for which the activity change, negative = inhibition is -2.76% in assay [1]; -9.88% in assay [2]; -1.92% in assay [3]; -8.4% in assay [4]; -4.14% in assay [5].

As to `CCc1cc2c(cc3n2CC(C)(C(=O)NC2CCCCCC2)N(C2CCCC2)C3=O)s1` (centres undefined), the activity change, negative = inhibition in assay [1] is 2.33%; in assay [2], 0%; in assay [3], 7.14%; in assay [4], -1.44%; in assay [5], 0.067%.

As to `CC(C)CCNC(=O)C1(C)Cn2c(cc3ccccc32)C(=O)N1Cc1ccc(OC(C)C)cc1` (centres undefined), the activity change, negative = inhibition in assay [1] was 2.75%; in assay [2], 1.61%; in assay [3] it was 3.53%; in assay [4], -2.99%; in assay [5], -2.94%.

With `CCOC(=O)c1cc2n(n1)CC(C)(C(=O)NC1CCCCCC1)N(Cc1ccccc1C)C2=O` (centres undefined), the activity change, negative = inhibition was determined as 5.92% in assay [1]; 2.28% in assay [2]; 7.42% in assay [3]; 3.54% in assay [4]; 5.21% in assay [5].

For the compound `O=[N+]([O-])c1cc(S(=O)(=O)Nc2ccc(O)c3ccccc23)ccc1Cl`, the activity change, negative = inhibition in assay [2] is -33.1%; in assay [4], -22.2%; in assay [5], -88.1%.

For the compound `CCCn1c(=O)c2ccc(C(=O)NCC(C)C)cc2n2c(=O)n(Cc3cccc(F)c3)nc12`, the activity change, negative = inhibition in assay [1] was 4.25%; in assay [2], 1.59%; in assay [3], 11.6%; in assay [4], 0.658%; in assay [5], 7.41%.

As to `CC(=O)Nc1c2n(c3ccc(F)cc13)CC(C)(C(=O)NCCC(C)C)N(Cc1ccc(F)cc1)C2=O` (centres undefined), the activity change, negative = inhibition is -13.4% in assay [1]; 0.119% in assay [2]; 0.421% in assay [3]; -6.91% in assay [4]; -0.726% in assay [5].

Turning to `CCCCNC(=O)c1cc2n(n1)CC(C)(C(=O)NC1CCCCC1)N(C)C2=O` (centres undefined), the activity change, negative = inhibition in assay [1] was determined as 6.19%; in assay [2], 0%; in assay [3] it was 3.76%; in assay [4], 9.68%; in assay [5], 3.19%.

Consider `CN1CCCCCCN(C(=O)Cc2cccc(F)c2)[C@H]2CCC[C@H]2C1=O`, for which the activity change, negative = inhibition is -0.35% in assay [1]; -0.437% in assay [2]; 2.15% in assay [3]; -5.82% in assay [4]; -1.12% in assay [5].

For `CCC(C)NC(=O)c1ccc2c(=O)n(C)c3nnc(SCC(=O)Nc4cccc(C)c4)n3c2c1` (centres undefined), the activity change, negative = inhibition in assay [1] came to 2.23%; in assay [2], 3.68%; in assay [3] it was 0.409%; in assay [4] it was 1%; in assay [5] it was 1.94%.

Consider `CC(C)CCNC(=O)C1(C)Cn2nc(C(=O)NCc3ccc(F)cc3)cc2C(=O)N1C` (centres undefined), for which the activity change, negative = inhibition is -0.612% in assay [1]; 4.31% in assay [2]; -1.85% in assay [3]; 2.62% in assay [4]; 0.775% in assay [5].

`COc1ccc(Cn2c(=O)c3ccccc3n3c(-c4ccc(F)c(F)c4)nnc23)cc1`: the activity change, negative = inhibition is -3.12% in assay [1]; 0.512% in assay [2]; 2.14% in assay [3]; 1.86% in assay [4]; -1.56% in assay [5].

On to `Cn1c2c(c3ccccc31)C(C(=O)NCc1ccccc1)N(c1ccc(Cl)cc1)C(=O)CS2` (centres undefined), for which the activity change, negative = inhibition was determined as 9.76% in assay [1]; 0% in assay [2]; 6.27% in assay [3]; 4.76% in assay [4]; 6.91% in assay [5].

With `CN(C)C[C@@H]1CN(S(C)(=O)=O)C[C@H]1NC(=O)CC1CCN(C)CC1`, the activity change, negative = inhibition was -1.92% in assay [1]; -1.81% in assay [2]; 0.799% in assay [3]; -1.7% in assay [4]; -5.5% in assay [5].

Consider `COC[C@H]1NC(=O)CC[C@H]1C(=O)NCCC1=CCCCC1`, for which the activity change, negative = inhibition was -1.05% in assay [1]; 0.187% in assay [2]; 0.732% in assay [3]; 4.43% in assay [4]; -3.14% in assay [5].

Turning to `COc1cc(/C=C/C(=O)N2CCC=CC2=O)cc(OC)c1OC`, the activity change, negative = inhibition in assay [2] is -27%; in assay [4], -8.05%; in assay [5], 3.49%.

On to `O=C(c1ccccn1)c1cnn2c(-c3ccncc3)ccnc12`, for which the activity change, negative = inhibition in assay [1] was -3.36%; in assay [2], 0.841%; in assay [3], 3.95%; in assay [4], -13%; in assay [5], 1.31%.

With `CCn1cc(CNc2ccc(-c3ccccc3OC)nn2)cn1`, the activity change, negative = inhibition was -5.81% in assay [1]; -1.32% in assay [2]; -1.13% in assay [3]; 0.127% in assay [4]; 3.34% in assay [5].

For `O=C(O)CCn1ncc2cc(OC3CCN(C(=O)Oc4ccccc4Cl)CC3)ccc21`, the activity change, negative = inhibition was -18.7% in assay [1]; -9.67% in assay [2]; -8.85% in assay [3]; -12% in assay [4]; 72.9% in assay [5].

Turning to `CCc1nc(-c2cccc(C)c2)c(-c2ccnc(NC(=O)c3ccccc3)c2)s1`, the activity change, negative = inhibition was 7.36% in assay [1]; -0.627% in assay [2]; 6.37% in assay [3]; -23.5% in assay [4]; -5.31% in assay [5].

`Cc1cc(C(=O)N[C@H]2[C@H](O)[C@H](O)C[C@@H]2c2ccc(N3CCOCC3)nc2)n(C)n1`: the activity change, negative = inhibition is -5.26% in assay [1]; -7.49% in assay [2]; -3.82% in assay [3]; -9.06% in assay [4]; -9.41% in assay [5].

Turning to `CCC(=O)N1CCc2sc(C(=O)NCc3ccc4c(c3)OCO4)cc2C1`, the activity change, negative = inhibition in assay [1] is -8.95%; in assay [2], -8.25%; in assay [3], -6.39%; in assay [4], -12.2%; in assay [5], -6.61%.

For `O=C1Cc2ccccc2N1`, the activity change, negative = inhibition was 11.4% in assay [2], -5.84% in assay [4] and 1.67% in assay [5].

Take `CC(C(=O)NCc1ccc(F)cc1)n1ccc2cc(S(=O)(=O)N3CCCC3)ccc21` (centres undefined): the activity change, negative = inhibition in assay [1] was 4.17%; in assay [2], 0%; in assay [3], -0.326%; in assay [4], 1.77%; in assay [5], 0.485%.

For the compound `Cc1ccc2c(c1)N(S(=O)(=O)c1ccc3[nH]c4c(c3c1)CCCC4)CCO2`, the activity change, negative = inhibition in assay [1] turned out to be 14.2%; in assay [2], 3.28%; in assay [3] it was 9.86%; in assay [4] it was 1.35%; in assay [5], 5.83%.

As for `CC(=O)Nc1cccc(-c2ncc3c(n2)OCCN(CC2CC2)C3=O)c1`, the activity change, negative = inhibition in assay [1] is -10.5%; in assay [2], -7.66%; in assay [3] it was -4%; in assay [4] it was -9.32%; in assay [5] it was -6.1%.

`O=C1COCCN1C1CCN(Cc2ccc(F)cc2)CC1`: the activity change, negative = inhibition in assay [1] was -2.08%; in assay [2], -5.23%; in assay [3], -4.01%; in assay [4], -6.7%; in assay [5] it was -6.42%.

As to `COc1ccc([C@H]2OC[C@H]3[C@@H]2CO[C@@H]3c2ccc(O[C@@H]3O[C@H](CO)C(O)[C@H](O)[C@H]3O)c(OC)c2)cc1OC` (some centres undefined), the activity change, negative = inhibition in assay [1] was 2.9%; in assay [2] it was 6.64%; in assay [3], 12.1%; in assay [4], -3.8%; in assay [5], 7.89%.

Regarding `CC(C)NC(=O)c1ccccc1OCC1CCCN(Cc2cn(C)c3ccccc23)C1` (centres undefined), the activity change, negative = inhibition is -4.9% in assay [1]; -6.28% in assay [2]; -60.4% in assay [3]; -16% in assay [4]; -0.179% in assay [5].

With `CN1CCN(CCCNC(=O)C2CCc3sc(C(=O)N4CCCCCC4)cc3C2)CC1` (centres undefined), the activity change, negative = inhibition in assay [1] was -3.02%; in assay [2] it was 0.135%; in assay [3], -7.22%; in assay [4] it was -4.01%; in assay [5], -3.25%.

For `CNC(=O)[C@H]1O[C@@H](n2cnc3c(NCc4cccc(I)c4)ncnc32)[C@H](O)[C@@H]1O`, the activity change, negative = inhibition in assay [1] is -3.47%; in assay [2], 2.66%; in assay [3], -11.4%; in assay [4] it was -9.32%; in assay [5], -3.95%.

In the case of `CCc1ccc(CNC(=O)c2cc3n(n2)CC(C)(C(=O)NC2CCCCC2)N(C)C3=O)cc1` (centres undefined), the activity change, negative = inhibition in assay [1] was -3.62%; in assay [2], -4.67%; in assay [3] it was 2.04%; in assay [4] it was -3.89%; in assay [5] it was -7.07%.

`CC(C)c1nccn1CCCNC(=O)c1ccc(N2CCCC(CO)C2)nc1` (centres undefined): the activity change, negative = inhibition was -8.77% in assay [1]; -15.8% in assay [2]; -66.6% in assay [3]; -17.3% in assay [4]; -11.4% in assay [5].

Turning to `CCc1ccc(CNC(=O)c2ncn3c2C(=O)N(C2CC2)C(C)(C(=O)NCc2cccc(C)c2)C3)cc1` (centres undefined), the activity change, negative = inhibition in assay [1] is 1.68%; in assay [2], 5.66%; in assay [3], 14.8%; in assay [4], 2.4%; in assay [5] it was 10.4%.

Take `COc1ccc(CNC(=O)Cn2ccc3cc(S(=O)(=O)N4CCCCC4)ccc32)c(OC)c1`: the activity change, negative = inhibition is 4.68% in assay [1]; 0% in assay [2]; 5.77% in assay [3]; -9.86% in assay [4]; 5.29% in assay [5].

For the origin of these results see PubChem BioAssay AID1745853 (National Center for Advancing Translational Sciences (NCATS), 2022).
